Data as given in PubChem BioAssay AID624417 (National Center for Advancing Translational Sciences (NCATS), 2012).
Among all 410,000 compounds or so, about 6,400 (1.6%) were called active. Inconclusive results, whose numbers are uncertain, are shown with a selection of clear calls. The call rests on the fitted dose curve; in most records, active means well fitted inhibition curve with a large enough effect; inconclusive means small, poorly fitted or top-dose-only effect; inactive means no such curve, though single readings can be large or run the other way. A potency beside an inconclusive call is a rough fit, not a confirmed value.

What follows are compounds tested against Glucagon-like peptide 1 receptor (Homo sapiens) (UniProt P43220) (assay: qHTS of GLP-1 Receptor Inverse Agonists (Inhibition Mode)). Conditions: HEK293 GLP-1R CRE-luciferase, luminescence, 24 h, GLP-1R form is constitutively active; series mostly up to 38.3 µM.
Sequence of UniProt P43220 (P43220 whole entry, looked up): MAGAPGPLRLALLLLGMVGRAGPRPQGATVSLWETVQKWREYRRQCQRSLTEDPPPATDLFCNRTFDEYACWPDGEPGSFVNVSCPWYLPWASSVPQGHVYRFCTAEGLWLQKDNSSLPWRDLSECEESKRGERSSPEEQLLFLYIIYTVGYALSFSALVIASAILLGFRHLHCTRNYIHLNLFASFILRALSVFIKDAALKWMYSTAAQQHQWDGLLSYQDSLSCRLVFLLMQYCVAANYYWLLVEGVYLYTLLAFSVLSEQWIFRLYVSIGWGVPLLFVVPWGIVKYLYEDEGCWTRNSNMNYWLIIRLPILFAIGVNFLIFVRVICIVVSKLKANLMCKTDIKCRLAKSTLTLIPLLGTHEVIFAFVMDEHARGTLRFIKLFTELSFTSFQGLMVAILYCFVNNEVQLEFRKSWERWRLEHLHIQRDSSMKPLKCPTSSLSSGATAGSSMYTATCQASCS
Outline: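 Inverse agonists were sought by their lowering of basal cAMP reporter luciferase output in HEK293 cells stably carrying constitutively active human GLP-1R, after 24 h compound treatment.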
Further: nearly all actives have a fitted effect of over 55% in size.
Potency means the concentration at half of the fitted maximal effect; tags describe the fitted curve by direction and shape.

Potency, active:
COc1cc(NC(=O)[C@@H](NC(=O)N2CCn3c2nc2ccccc23)C(C)C)cc(OC)c1 10 µM
COc1ccc(CNc2ncnc3c2c(-c2ccccc2)cn3-c2ccccc2)cc1 6.31 µM
Cc1ccc(-c2c(C(=O)NCCc3ccc(Cl)cc3)oc(=O)c3ccccc23)cc1 4.47 µM
C[C@H](CO)N1C[C@H](C)[C@H](CN(C)S(=O)(=O)c2cccc(F)c2)OCc2ccccc2-c2c(n(C)c3ccccc23)C1=O 11.2 µM

Potency, inconclusive:
CN(Cc1ccccc1)C(=O)CN1C(=O)NC(C)(c2ccc(Cl)cc2)C1=O (stereo not drawn) 11.2 µM [inhibitor, single point]
O=c1[nH]c(CN2CCN(S(=O)(=O)c3cccs3)CC2)nc2c(Br)cc(Br)cc12 10 µM [inhibitor, partial curve, poor fit]
CCCn1c2ccccc2c2cc(C(=O)O)ccc21 28.2 µM [inhibitor, single point]
O=C(COC(=O)c1ccccc1Cl)NC1CCCCCC1 22.4 µM [inhibitor, single point]
COc1ccc(NC(=O)CSCC(=O)N(C)CC(=O)Nc2cccc3ccccc23)cc1 28.2 µM [inhibitor, single point]
COc1ccc(Cc2nnc(N/N=C/c3ccc(O)cc3O)[nH]c2=O)cc1OC 28.2 µM [inhibitor, single point]
O=C(/C=C/c1ccc(OC(F)F)cc1)Nc1cccc(S(=O)(=O)NC2=NCCCCC2)c1 22.4 µM [inhibitor, single point]
CC(C)(C)C(=O)Nc1c(C(=O)N2CCN(c3ccc(F)cc3)CC2)oc2ccccc12 14.1 µM [inhibitor, single point]
c1ccc(C2CNCCc3ccccc32)cc1 (stereo not drawn) 10 µM [inhibitor, single point]
COc1ccc(SCCN2CC[C@@H](C(C)(C)C)CCC2=O)cc1 12.6 µM [inhibitor, single point]
O=C1c2cccc(-c3ccc(C(F)(F)F)cc3)c2C2CCCCN12 (stereo not drawn) 22.4 µM [inhibitor, single point]
CSCCCNC(=O)c1ccc(OC2CCN(CCc3ccccc3)CC2)cc1 10 µM [inhibitor, partial curve, poor fit]
CN(CCCn1cnc2c(OCc3ccccc3)ncnc21)Cc1ccco1 14.1 µM [inhibitor, partial curve, poor fit]
CCOC(=O)c1ccc(NC(=S)N2CCN(CCN=CC3=C(O)CC(c4ccccc4)CC3=O)CC2)cc1 (stereo not drawn) 10 µM [inhibitor, partial curve, poor fit]
O=C(Cc1cccs1)N1CCN(S(=O)(=O)c2cc(Cl)ccc2Cl)CC1 31.6 µM [inhibitor, single point]
Cc1cccc2cc(CN(CCCO)C(=O)Nc3ccc(Cl)cc3)c(=O)[nH]c12 28.2 µM [inhibitor, single point]
O=C(N/N=C/c1ccc[nH]1)c1ccccc1OCc1ccccc1Cl 12.6 µM [inhibitor, partial curve, poor fit]
COc1ccc(S(=O)(=O)N(C)c2ccc(C(=O)N3CCN(C)CC3)cc2)cc1 17.8 µM [inhibitor, partial curve, poor fit]
Cc1cc(NC(=O)C2CCCCC2)n(-c2nc3ccccc3[nH]2)n1 28.2 µM [inhibitor, single point]
O=C(COc1ccccc1Cl)Nc1ccc(C(=O)N2CCCCC2)cc1 7.08 µM [inhibitor, partial curve, poor fit]
OCC1(CCc2ccccc2)CCN(Cc2ccc(OC(F)F)cc2)CC1 7.94 µM [inhibitor, partial curve, poor fit]
CCCc1cc(C(=O)NNC(=S)NC2CCCCC2)cs1 22.4 µM [inhibitor, single point]
COc1cccc(CN(C)C(=O)c2cc(S(=O)(=O)NC3CCCCC3)ccc2C)c1OC 31.6 µM [inhibitor, single point]
Cc1ccc(S(=O)(=O)N2CCN(C(=O)COC(=O)c3cccc(Cl)c3)CC2)c(C)c1 28.2 µM [inhibitor, single point]
CCC(C)NC(=O)Cn1cc(S(=O)(=O)N2CCN(c3ccccc3F)CC2)c2ccccc2c1=O (stereo not drawn) 11.2 µM [inhibitor, single point]
COc1cc(NC(=O)c2nccn2C)cc(C(=O)Nc2cccc(C(F)(F)F)c2)c1 7.08 µM [inhibitor, partial curve, poor fit]
COc1ccc(CCC(=O)N2CCCc3ccccc32)cc1 28.2 µM [inhibitor, single point]
Cc1c(C)n(C)c2ccc(C(=O)NCCCN3CCCCC3)cc12 8.91 µM [inhibitor, partial curve, poor fit]
CC[C@H](C)[C@H](NC(=O)OCc1ccccc1)C(=O)OCC(=O)N1CCN(c2ccc(F)cc2)CC1 10 µM [inhibitor, partial curve, poor fit]
COC(=O)c1c(-c2ccccc2OC)sc2ccc(OC)cc12 7.94 µM [inhibitor, partial curve, poor fit]
Cc1cccc(N2C(=O)CCSC23C(=O)N(Cc2ccc(F)cc2)c2ccccc23)c1 (stereo not drawn) 20 µM [inhibitor, single point]
CC(C)c1ccc(/C=N/Nc2ccc(C(=O)O)cc2)cc1 0.251 µM [inhibitor, full curve, poor fit]
COc1cc(-c2cc(NC=O)c3ncc(-c4ccc(C(C)=O)cc4)n3c2)cc(OC)c1OC 28.2 µM [inhibitor, single point]
Cc1ccc2nc(C3CCCCC3)c(CC(C)(C)C)n2c1 10 µM [inhibitor, partial curve]
O=C(COC(=O)CCc1nc2ccccc2c(=O)[nH]1)NC(=O)NC1CCCC1 0.447 µM [inhibitor, full curve, poor fit]
CN(C)CCNC(=O)C1CCN(S(=O)(=O)c2ccc3ccccc3c2)CC1 6.31 µM [inhibitor, partial curve, poor fit]
COc1ccc(NC(=O)CCNS(=O)(=O)c2ccc(Br)s2)cc1 3.55 µM [inhibitor, partial curve]
CC(C)Cn1c(N)c(C(=O)COC(=O)c2ccccc2C(=O)c2ccccc2)c(=O)n(C)c1=O 28.2 µM [inhibitor, single point]
N=c1n(CCc2ccccc2)c2ccccc2n1Cc1ccccc1F 11.2 µM [inhibitor, partial curve, poor fit]
CCCCN1C(=S)NC[C@@H]1Cc1ccccc1 28.2 µM [inhibitor, single point]
Cc1ccc(-n2c(Cn3nc(C(F)F)cc3C(F)F)n[nH]c2=S)cc1 2.82 µM [inhibitor, partial curve, poor fit]
Cc1cc(N2CCN(C(c3ccccc3)c3ccc(Cl)cc3)CC2)n2ncnc2n1 (stereo not drawn) 14.1 µM [inhibitor, partial curve, poor fit]
CC(NC(=O)Nc1cccc(F)c1)c1ccc2c(c1)OCO2 (stereo not drawn) 10 µM [inhibitor, single point]
Cc1ccc(S(=O)(=O)NC(=NC2CCCCC2)c2ccccc2)cc1 10 µM [inhibitor, partial curve]
c1ccc(OCCSc2nnnn2C2CCCCC2)cc1 11.2 µM [inhibitor, single point]
CCN(c1ccccc1)S(=O)(=O)c1ccc(C(=O)Nc2ccccc2OC)cc1 10 µM [inhibitor, partial curve, poor fit]
CC1=C(C(=O)N(C(C)C)C(C)C)CC(CC(=O)NCc2cccs2)C(=O)N1Cc1ccc(C(C)(C)C)cc1 (stereo not drawn) 11.2 µM [inhibitor, single point]
COC(=O)c1cc(S(=O)(=O)NC2CCCCC2)cn1C 28.2 µM [inhibitor, single point]

Potency, inactive:
O=c1cc(-c2cccc(F)c2)oc2ccccc12
CC(=O)CC1(O)C(=O)Nc2ccccc21 (stereo not drawn)
COc1ccc(NC(=O)Cc2csc(C)n2)cc1
CCc1cccc(NC(=O)CSc2ncc3c(n2)-c2ccccc2N(Cc2ccccc2C)S3(=O)=O)c1
O=C(CSc1ccccc1)Nc1ccc(S(=O)(=O)Nc2ncccn2)cc1
C=CCN(c1ccc(Br)cc1C(=O)OC)S(C)(=O)=O
O=c1c2cc(-c3ccccc3)sc2ncn1/N=C/c1ccco1
COCCc1nn2c(=O)cc(COC(=O)c3ccc(C(C)(C)C)cc3)nc2s1
COc1ccc(C(=O)NNC(=S)NC(=O)c2ccco2)cc1
O=c1c2sc3ccccc3c2n(Cc2ccccc2F)c(=O)n1CCc1ccccc1
Cc1ccc(C)c(S(=O)(=O)c2nnn3c2nc(NCc2ccc4c(c2)OCO4)c2sccc23)c1
